In article PMC10668032:
This is one part of the list. At the low end of the ranking the order means little.

Each sequence was assayed against SIX1 homeodomain (reference allele) (UniProt Q15475) (assay: universal protein binding microarray). Details: Universal all-10-mer PBM (8x60K, AMADID 030236), 300 nM GST-tagged protein, Alexa Fluor 488 anti-GST; buffer, salt, pH and temperature not stated; high values mean tight binding; most listed sequences are background and not binding sites; double strand, one strand shown.

Sequence	binding signal
AGAAATAA	-0.0857 E-score
CATTTGGG	-0.0944 E-score
GACATACC	-0.033 E-score
CAGCAAGG	0.00366 E-score
GGCACGTA	-0.00795 E-score
GCGGGTAC	0.0364 E-score
ACTTGTCT	-0.159 E-score
AGTGATGC	0.0565 E-score
CGGACGAC	-0.00728 E-score
TGCGCACA	-0.134 E-score
AATCTTTG	-0.146 E-score
CAAGCTCG	-0.0293 E-score
GAACCCTA	0.095 E-score
GCGTGGAC	-0.177 E-score
ATGTGGCA	-0.161 E-score
AGCTGGCC	-0.276 E-score
TACGCGTA	0.125 E-score
CACAAGTA	0.0172 E-score
TCACCTGA	0.165 E-score
ACTCCCAC	-0.0948 E-score
ACTATCGG	0.122 E-score
CAAACCCC	0.101 E-score
CTGCTCAC	-0.014 E-score
ACATTCGG	0.132 E-score
CAGAACAG	-0.176 E-score

Sequence	binding signal
CTAATTGA	0.113 E-score
ATTCGACG	-0.158 E-score
ATAAGCTA	-0.0406 E-score
CTCTTAAG	-0.026 E-score
GCTGACTA	-0.142 E-score
GAAGGCGC	-0.0979 E-score
CGTTGCCC	-0.232 E-score
AGTTGCGG	-0.096 E-score
AGAGCCTG	-0.0577 E-score
ACGCGGAG	-0.108 E-score
CGTACTCA	-0.0788 E-score
CGCATTGC	-0.0165 E-score
CTCGTCGA	-0.258 E-score
CGTACAGC	-0.185 E-score
CCTGTCAG	0.033 E-score
CCCTGCCA	-0.226 E-score
ACTGTTCG	-0.0188 E-score
CAACCGTG	-0.0206 E-score
AAGATGCA	0.0379 E-score
GCGGCATA	0.0603 E-score
ACATGGGA	0.128 E-score
CCGACCAA	0.0118 E-score
CTTTTGGC	-0.158 E-score
CCTTAACG	0.00154 E-score
GGGGATCA	0.447 E-score

Sequence	binding signal
AACGAGAC	-0.0716 E-score
AGAAGCCA	-0.0255 E-score
GATTGATA	0.381 E-score
CAAAAGAA	-0.132 E-score
AATTCCTA	-0.0452 E-score
AGCATCGG	-0.0463 E-score
CAATTGCG	-0.0326 E-score
CTGAGCGC	-0.126 E-score
CCTCCCCC	-0.13 E-score
CATTAATA	0.154 E-score
ACAATGAC	-0.174 E-score
GCCGAAAC	-0.132 E-score
CCGTCGTA	-0.0993 E-score
GAGACGAC	0.0861 E-score
CACTAGGA	0.00767 E-score
GCACCAGC	-0.165 E-score
AGGCCGAG	-0.234 E-score
AGCGGAAC	-0.0398 E-score
ATGGCCCA	-0.228 E-score
CGGATACA	0.446 E-score
ACATTGTA	-0.021 E-score
CGAGCACA	-0.106 E-score
CTAAAGAA	-0.221 E-score
CCCGAGCG	-0.131 E-score
CAAAATTC	-0.219 E-score

Sequence	binding signal
CGAAACGC	-0.145 E-score
GCTCCACC	-0.186 E-score
CAGCCTCG	-0.0738 E-score
CGCTACAC	-0.00354 E-score
ACACACGT	-0.0577 E-score
ATTAACTA	0.0179 E-score
GGGCGCAA	-0.167 E-score
GGGTTATA	0.163 E-score
GGAGTCAA	0.00597 E-score
GCTCAAGA	-0.131 E-score
GAGTATAA	0.179 E-score
CCGGTGCA	-0.0272 E-score
AGTCACCC	-0.237 E-score
CATTACAG	-0.118 E-score
CATGGAGA	0.111 E-score
AGTCGGTC	-0.0589 E-score
CCGGATAA	0.299 E-score
CTAAATGC	-0.091 E-score
CGCCGTCC	-0.159 E-score
CTGAAACC	0.155 E-score
ACCGCTGC	-0.143 E-score
GCCTGTAA	-0.182 E-score
GCTACAAC	-0.2 E-score
CGAGACTA	0.121 E-score
AGTTTAGA	0.086 E-score

Sequence	binding signal
CGTGCCAC	-0.175 E-score
GAGAATCA	0.0358 E-score
CCATTAGG	-0.0724 E-score
TCGATACA	0.348 E-score
ATACCGAG	0.304 E-score
AGAAGGGG	0.103 E-score
ACGCACCT	-0.0311 E-score
CAATACAC	0.146 E-score
AGTTATAA	-0.103 E-score
CAGCTCGA	0.0121 E-score
AGCACCCG	0.101 E-score
CCCCGAGG	0.0411 E-score
CGCGAACA	0.0481 E-score
CTACTACC	0.0239 E-score
AGTACTAT	0.066 E-score
ATCTTTAA	0.0347 E-score
CTTGATTA	-0.0746 E-score
CAGTAAAG	-0.206 E-score
TCAAGAGA	-0.0728 E-score
AAATGTGG	-0.108 E-score
AAGAGCTC	-0.283 E-score
GACTTGGC	-0.25 E-score
AGTGTTTA	-0.0906 E-score
ATATGTTC	0.334 E-score
GAGGTGGC	-0.246 E-score

Sequence	binding signal
GCAAAGGA	-0.0683 E-score
GTTCCAAC	-0.195 E-score
CAGTGGAC	-0.122 E-score
CAAGCCAC	-0.209 E-score
CCCGGTCA	-0.0749 E-score
GAATATGA	0.0489 E-score
AGTAAGCG	0.0443 E-score
GTTCACGA	-0.0761 E-score
AGTTAAAG	-0.163 E-score
AGTTACAA	-0.0681 E-score
GTTAAACA	-0.119 E-score
AAAGCACA	-0.213 E-score
CTTCTCCC	-0.07 E-score
ATTGCGAA	-0.0642 E-score
ATACCGTG	0.384 E-score
CAGCGCCG	-0.338 E-score
ACGATAGT	0.215 E-score
AATGGTTG	-0.206 E-score
TCCCTCCA	0.00395 E-score
ACAATTCA	-0.112 E-score
ACTCACTA	-0.0254 E-score
CCGATCGG	0.319 E-score
CAATAACC	-0.0682 E-score
CGAAGCGA	-0.0224 E-score
AAGATGGA	0.108 E-score

Sequence	binding signal
GTTCTCCA	-0.072 E-score
ATGCATAA	-0.00019 E-score
CGTCACAC	-0.0792 E-score
CTTGCAAA	0.00662 E-score
CAGACTCC	-0.316 E-score
CTGGTCAA	-0.203 E-score
AGATTCTC	0.0748 E-score
CCCACTCA	-0.0371 E-score
CAAACCGG	0.14 E-score
CGTTCTGC	-0.0614 E-score
CTCACCCA	0.0203 E-score
GACCGGGC	-0.0973 E-score
ATCGTCAA	0.0973 E-score
AACGGATC	0.376 E-score
GGACCTAC	-0.0796 E-score
CCTATACA	0.102 E-score
TACGCAGA	0.0436 E-score
GGAATACC	0.295 E-score
CCAGACCA	-0.0642 E-score
ATGGCGAG	-0.135 E-score
AAGTAGAC	-0.00797 E-score
AATACATG	0.132 E-score
